The whole screen tested about 1,600 compounds, of which about 55 (3%) were called active. Inconclusive results, whose numbers are uncertain, are shown with a selection of clear calls. The call rests on the fitted dose curve; in most records, active means well fitted inhibition curve with a large enough effect; inconclusive means small, poorly fitted or top-dose-only effect; inactive means no such curve, though single readings can be large or run the other way. Potencies of inconclusive entries are left out as doubtful fits.
Assay: qHTS for Inhibitors of TGF-b: Hit Validation in HepG2 Cells using COP promoter; further: nearly all actives have a fitted effect of over 70% in size
Conditions: HepG2 COP-GFP TGF-b reporter, GFP fluorescence, 18 h, cells stimulated by added recombinant TGF-beta; activity, negative = inhibition: at 46.1 µM (top of the series)
From the text: TGF-b is a main component in the TGF-b signaling pathway which plays diverse roles in cellular and development pathways. TGF-b is the mediated by the transcription factors Smads. Although the Smad-dependent pathway is the primary canonical TGF-b signaling node, TGF-b1 can also activate alternative signaling pathways, including those involving MAPK (ERK, JNK and p38). This interaction may mediate or enhance Smad-dependent responses, or can exert Smad-independent effects. The complexity of this signaling cascade allows the TGF-b superfamily to perform unique, overlapping or redundant functions. We believe that targeting the TGF-beta pathway at the Smad-transcription factor level may eliminate the consequences of disrupting the entire pathway and offer specificity without affecting other signaling pathways. Smad3 is the primary transducer of TGF-b's signals and Smad3 regulates many functions attributed to TGF-b signaling. We hypothesize that Smad3 inhibitors will selectively eliminate Smad3-specific TGF-beta signals without undesired off-target effects. We aim to identify Smad3-small molecule antagonists using a quantitative high throughput screening (qHTS) approach. A high-throughput assay was developed to screen the NIH Molecular Libraries Small Molecule Repository (MLSMR). This is a cell based assay, where TGF-b is tagged with GFP. This assays tests the hits identified from the primary screen in HepG2 cells, but using a cop promoter rather than a caga promoter. True actives from the primary screen will also be active in this assay. NIH Chemical Genomics Center [NCGC] NIH Molecular Libraries Probe Centers Network [MLPCN] MLPCN Grant: MH087449 Assay Submitter (PI): Sushil Rane, National Institute of Diabetes and Kidney Diseases
Suspensions of trypsinized HEPG2 COP-GFP cells were dispensed into white, tissue culture-treated, solid 1536-well plates at 5uL/well (1000 cells/well final concentration) in DMEM medium supplemented with 1% FBS. Plates were incubated at 37 degrees C for 2 hours, after which 23 nL of compounds or DMSO were delivered to each well using a pin tool. One uL of recombinant TGF-beta in DMEM (1% FBS) was then dispensed (500 pg/mL final concentration), and plates were incubated at 37 degrees C for 18 hours. The plates were measured on an Acumen eX3 Explorer plate reader for GFP fluorescence (ex488/em500-530). GFP values were calculated by determining the mean GFP fluorescence of individual cells, and compiling these values for each well to determine a total well GFP signal. The %Activity was determined from the corrected fluorescence values. A titration of the known TGF-B inhibitor SB431542 was included to monitor plate performance, while unstimulated HEPG2 (-TGF-B) control wells were used to normalize %Activity of identified inhibitors; unstimulated wells corresponded to 100%Activity (full inhibition), while stimulated cell controls (+DMSO) were used to normalize 0%Activity (no inhibition). Concentration-response curves were fitted to the signals arising from the resulting fluorescence. The concentration-effect curves were then classified based on curve quality (r2), response magnitude and degree of measured activity, and compounds were subsequently categorized based on their curve class.
Potency means the concentration at half of the fitted maximal effect; tags describe the fitted curve by direction and shape.

| Compound | Potency | activity, negative = inhibition |
| --- | --- | --- |
| COc1ccc(C[C@H](N)C(=O)N[C@H]2[C@@H](O)[C@H](n3cnc4c(N(C)C)ncnc43)O[C@@H]2CO)cc1 | inconclusive [inhibitor, single point] | – |
| CC(=O)Oc1c(Br)cc(N(C(C)=O)S(=O)(=O)c2ccccc2)c2ccccc12 | inconclusive [inhibitor, single point] | – |
| OC(c1cc(-c2ccc(C(F)(F)F)cc2)nc(C(F)(F)F)c1)C1CCCCN1 (stereo unspecified) | inconclusive [inhibitor, single point] | – |
| O=[N+]([O-])c1ccc(S(=O)(=O)c2ccccc2)nc1 | active: 8.2 µM | – |
| CC(C)C[C@H]1CNC(=S)N1CC1CCCN1C[C@H](Cc1ccccc1)N1C[C@H](Cc2ccc(O)cc2)N(CC2CCCCCC2)C1=S (stereo partly specified) | – | inactive: 30.8% |
| O=C1Cc2c([nH]c3ccc(Br)cc23)-c2ccccc2N1 | – | inactive: 27.9% |
| CCCCCCCCOC(=O)c1cc([N+](=O)[O-])c(Sc2ncnc3nc[nH]c23)c([N+](=O)[O-])c1 | inconclusive [inhibitor, partial curve, poor fit] | – |
| CCCOc1ccc(C(=O)CCN2CCN(C(=O)OCC)CC2)cc1 | active: 23.1 µM | – |
| O=c1c2ccccc2nc(/C=C/c2ccc([N+](=O)[O-])o2)n1CCCO | inconclusive [inhibitor, single point] | – |
| COc1ccc(C[C@@H]2OC3(C=CC(=O)C=C3)O[C@H]2Cc2ccc(OC)cc2)cc1 | inconclusive [inhibitor, single point] | – |
| COc1ccccc1NC(=O)c1nc(S(=O)(=O)Cc2ccccc2)ncc1Cl | active: 14.6 µM | – |
| O=C(Nc1cccc(NC(=O)c2cccs2)c1)c1ccc([N+](=O)[O-])o1 | inconclusive [inhibitor, single point] | – |
| CC(C)C[C@@H](CN1CCCC1CN1C(=S)NC[C@@H]1Cc1ccc(O)cc1)N1C[C@H](Cc2ccc(O)cc2)N(CC2CCCCC2)C1=S (stereo partly specified) | inconclusive [inhibitor, single point] | – |
| CC(=O)Nc1ncnc2c1c(-c1ccc(Cl)cc1)nn2C(C)(C)C | inconclusive [inhibitor, partial curve, poor fit] | – |
| COc1cc(CN2CCC(C(=O)NC(c3ccc(F)cc3)c3ccc4ccccc4n3)CC2)cc(OC)c1 (stereo unspecified) | inconclusive [inhibitor, single point] | – |
| O=S(=O)(/C(=C\c1ccc(C(F)(F)F)cc1)c1nc2ccccc2[nH]1)c1ccccc1 | inconclusive [inhibitor, single point] | – |
| CCC(=O)N1CCN(c2ccc(NC(=O)c3ccc([N+](=O)[O-])o3)cc2Cl)CC1 | – | inactive: -14.6% |
| Cc1ccc(-n2nnnc2Sc2ccc(S(=O)(=O)NCCN(C)C)cc2[N+](=O)[O-])cc1 | inconclusive [inhibitor, single point] | – |
| COC(=O)c1sccc1NC(=O)CN1CCN(c2ccc(F)cc2)CC1 | – | inactive: 10% |
| CS(=O)(=O)c1ccc(C(=O)OCC(=O)NC(=O)C2CCCCC2)cc1[N+](=O)[O-] | inconclusive [inhibitor, single point] | – |
| COc1cccc(Nc2nc(NCC3CCCO3)c3ccccc3n2)c1 (stereo unspecified) | – | inactive: 90.7% |

| Compound | Potency | activity, negative = inhibition |
| --- | --- | --- |
| CC(=O)N(Cc1ccc(F)cc1)C1=C(NCc2ccccc2)C(=O)c2ccccc2C1=O | inconclusive [inhibitor, single point] | – |
| CCS(=O)(=O)c1ncc(Cl)c(C(=O)Nc2ccc(S(=O)(=O)N(C)c3ccccc3)cc2)n1 | active: 7.31 µM | – |
| O=C(Nc1ccccc1Cc1ccccc1)c1ccccc1NS(=O)(=O)c1ccc(Cl)s1 | – | inactive: 80.4% |
| Cc1ccc(S(=O)(=O)c2ccc([N+](=O)[O-])cn2)cc1 | active: 5.17 µM | – |
| COC(=O)C1CCC(=O)N1C(c1ccc(OC)cc1)c1cc(OC)c(OC)c(OC)c1 (stereo unspecified) | – | inconclusive: -35.2% [inhibitor] |
| O=C(Nc1c(Cl)ccc2nsnc12)c1ccc([N+](=O)[O-])o1 | inconclusive [inhibitor, single point] | – |
| O=[N+]([O-])c1c(Nc2ccc(O)cc2)cc(Cl)c2nonc12 | active: 4.61 µM | – |
| CCC(=O)NC(c1ccco1)c1cc(Cl)c2cccnc2c1O (stereo unspecified) | – | inactive: 16.5% |
| CCN(CC)C(=O)CSc1nnc2nnc3cc(Cl)ccc3n12 | inconclusive [inhibitor, single point] | – |
| Cc1cccc(NC(=O)Nc2ccc(C#N)cc2)n1 | – | inactive: 27.5% |
| CC(C)NC(=O)N(C)C[C@H]1Oc2ccc(NS(=O)(=O)c3ccc(Cl)cc3)cc2CC(=O)N([C@@H](C)CO)C[C@@H]1C | – | inactive: 2.76% |
| CN(C)CCCN(C(=O)CCOc1ccccc1)c1nc2ccc(F)cc2s1 | inconclusive [inhibitor, single point] | – |
| CC1=C(CO)C(=O)OC([C@@H](C)C2CC[C@H]3C4C[C@H]5O[C@]56[C@@H](O)C=CC(=O)[C@]6(C)C4CC[C@]23C)C1 (stereo partly specified) | inconclusive [inhibitor, single point] | – |
| CCN1CCN(Cc2ccc(NC(=O)c3cc(NC(=O)c4cncc(-c5ccc(C#N)cc5)c4)cc(OC)c3)cc2C(F)(F)F)CC1 | inconclusive [inhibitor, single point] | – |
| O=C(c1ccc(F)cc1)C(CN1CCOCC1)c1ccccc1 (stereo unspecified) | inconclusive [inhibitor, single point] | – |
| Cc1ccc(Cl)cc1NC(=O)c1cc2ccccc2cc1O | – | inactive: 77.6% |
| COc1ccc(C(=O)C(CCC(CNC(C)(C)C)C(=O)c2ccc(OC)cc2)CNC(C)(C)C)cc1 (stereo unspecified) | inconclusive [inhibitor, single point] | – |
| COC(=O)CCS(=O)(=O)c1nc(-c2ccccc2)cc(C(F)(F)F)n1 | inconclusive [inhibitor, single point] | – |
| O=C(NC(c1ccccc1)c1ccc2ccccc2n1)C1CCN(CCOc2ccc(Cl)cc2Cl)CC1 (stereo unspecified) | inconclusive [inhibitor, single point] | – |
| CCN(CC)CC(C)(C)C(=O)/C=C/c1ccc(/C=C/C(=O)C(C)(C)CN(CC)CC)cc1 | inconclusive [inhibitor, single point] | – |

Reference: PubChem BioAssay AID720537 (National Center for Advancing Translational Sciences (NCATS), 2013)
